# Assay results reported in PubChem BioAssay AID651820 (National Center for Advancing Translational Sciences (NCATS), 2012).
# About 12,000 (3.5%) of roughly 340,000 compounds were called active. This list was built around the results that the source calls inconclusive (neither active nor inactive); the mix of calls is not that of the screen. The call rests on the fitted dose curve; in most records, active means well fitted inhibition curve with a large enough effect; inconclusive means small, poorly fitted or top-dose-only effect, or another doubt; inactive means no such curve, though single readings can be large or run the other way. No potency is given beside an inconclusive call; the fits are too rough.
# Test: qHTS Assay for Inhibitors of Hepatitis C Virus (HCV)
# Conditions: Huh7.5.1 HCVcc-Cre (HCVcc is cell-culture hepatitis C virus) infection, luciferase reporter, 44 h; activity change, negative = inhibition: at 41.8 µM (top of the series) unless noted
# Outline: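 Compounds are dispensed onto cells plated 4 h earlier at 1,000 per well, with HCVcc-Cre virus (about 0.5 moi) added next. Following 44 h of culture, luminescent signal is measured for 15 sec after 15 min with substrate at room temperature.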
# On the % scale 0 is the no-effect control and ±100 the full control effect; potency means the concentration at half of the fitted maximal effect; tags describe the fitted curve by direction and shape.
Compound,Potency,"activity change, negative = inhibition"
CC1(C)Cc2c(C#N)c(N3CCOCC3)nc(Cc3ccccc3)c2CO1,"inconclusive [inhibitor, single point]",–
CCC(C(=O)NCCc1ccccc1OC)n1nc(C)c2c(C)n(-c3ccccc3)nc2c1=O (stereo not drawn),"inconclusive [inhibitor, single point]",–
c1ccc(OCc2nnc3n2N=C(c2ccccc2)CS3)cc1,–,inactive: -19.8%
C(=Cc1c[nH]c2ccccc12)c1ccc2ccccc2n1,active: 5.62 µM,–
CCOC(=O)c1c(C)n(C)c2ccc(OCC(O)Cn3nc(C)cc3C)cc12 (stereo not drawn),"inconclusive [inhibitor, partial curve]",–
COc1ccc(OCc2nnc(SCC(=O)N3c4ccccc4Sc4ccc(Cl)cc43)o2)cc1,"inconclusive [inhibitor, partial curve]",–
CC1Cc2nc(SCC(=O)N3CCN(c4ccccc4)CC3)n(CCc3ccccc3)c(=O)c2S1 (stereo not drawn),"inconclusive [inhibitor, single point]",–
CCc1ccc(-c2cc(C(F)(F)F)n3nc(C(=O)Nc4c(C)nn(Cc5ccc(F)cc5)c4C)cc3n2)s1,active: 1.58 µM,–
CC(C)C(c1nnnn1C1CCCCC1)N1CCc2ccccc2C1 (stereo not drawn),–,inactive: -14.7%
Cc1ccc(-n2cc(S(=O)(=O)c3ccc(C)cc3)[nH]c2=O)cc1,–,inactive: 7.14%
COc1ccc(-n2nc(C(=O)NCC(=O)NCCCN3CC(C)CC(C)C3)c3ccccc3c2=O)cc1Cl (stereo not drawn),"inconclusive [inhibitor, single point]",–
Cn1c(=O)c2c(nc(CN3CCC(Cc4ccccc4)CC3)n2CCN2CCOCC2)n(C)c1=O,–,inactive: -15.3%
COc1cccc(N2CCN(C(=O)CN(C)S(=O)(=O)c3ccc4c(c3)c(=O)n(C)c(=O)n4C)CC2)c1,–,inactive: -25.8%
Cc1ccc(C)c2sc(N)nc12,"inconclusive [inhibitor, single point]",–
CC(C)Cc1cc(C(=O)N2CCCC(C(=O)c3cc(F)ccc3F)C2)n(C)n1 (stereo not drawn),"inconclusive [inhibitor, single point]",–
Cc1cc(Br)ccc1NC(=O)C1CCN(S(=O)(=O)c2cnc[nH]2)CC1,–,inactive: 4.47%
CCOC(=O)[C@@H]1[C@H]2COc3ccccc3[C@H]2N2C(=O)N(c3cccc(Cl)c3)C(=O)[C@@]12C,–,inactive: -2.22%
O=C(Nc1nnc(SCCN2CCOCC2)s1)C1CC(=O)N(c2ccccc2)C1 (stereo not drawn),–,inactive: 23.5%
CCCC(=O)Nc1ccc(C#Cc2ccccc2)cc1,"inconclusive [inhibitor, partial curve]",–
Cc1cc(C)cc(NC(=S)NC2CC3CCCC(C2)N3C2CC2)c1 (stereo not drawn),"inconclusive [inhibitor, single point]",–
C=CCN(CC=C)C(=S)NCCc1ccc(OC)c(OC)c1,"inconclusive [inhibitor, partial curve, poor fit]",–
Cc1noc(C)c1S(=O)(=O)N(C)C[C@H]1Oc2ccc(NS(=O)(=O)c3cn(C)cn3)cc2C(=O)N([C@H](C)CO)C[C@@H]1C,active: 3.55 µM,–

Compound,Potency,"activity change, negative = inhibition"
Cc1ccc(Cn2c(=N)c(C(=O)NCC3CCCO3)cc3c(=O)n4cccc(C)c4nc32)cc1 (stereo not drawn),active: 11.2 µM,–
CCC(C)NC(=O)c1cc(Cl)c(NC(=O)C2=C(C)OCCS2)cc1OC (stereo not drawn),"inconclusive [inhibitor, full curve, poor fit]",–
Cc1ccc(Cn2c(SCC(=O)NCC3CCCO3)nc3ccsc3c2=O)cc1 (stereo not drawn),active: 8.91 µM,–
COc1cccc(/C=N/NC(=O)c2ccccc2N(Cc2ccccc2)S(=O)(=O)c2ccccc2)c1OC,"inconclusive [inhibitor, single point]",–
Cc1ccc(Cn2nnnc2CN2CCC(n3nnc4cc(C)ccc43)CC2)cc1,–,inactive: -28.4%
Cc1ccc(S(=O)(=O)c2nc(NCCCn3ccnc3)sc2Cl)cc1,"inconclusive [inhibitor, single point]",–
COCCn1c(SCC(=O)Nc2ccc3c(c2)OCCO3)nnc1-c1c[nH]c2ccccc12,"inconclusive [inhibitor, single point]",–
Cc1nnc(NS(=O)(=O)c2ccc(F)cc2)s1,–,inactive: 15.7%
Cc1ccc(S(=O)(=O)N2CCCC2C(=O)NCc2ccccc2F)cc1 (stereo not drawn),–,inactive: 11.7%
CCn1c(SCC(=O)N/N=C/C=C\c2ccccc2[N+](=O)[O-])nc2ccccc21,"inconclusive [inhibitor, full curve]",–
O=c1c2cc(Cl)ccc2nc(-c2ccc(Cl)c(Cl)c2)n1O,"inconclusive [inhibitor, single point]",–
CCN(CC)CCCNC(=O)c1cc2c(=O)n(C)c3ccccc3c2n1C,–,inactive: -22.8%
CCCCC(=O)N1C/C=C\C(c2ccc(OC)cc2)N(Cc2ccc(F)cc2)C(=O)[C@H]1Cc1ccccc1 (stereo partly drawn),"inconclusive [inhibitor, single point]",–
COc1ccc(S(=O)(=O)N2CCOC2CNC(=O)C(=O)NCCc2ccc(OC)c(OC)c2)cc1C (stereo not drawn),active: 11.2 µM,–
COc1ccc(C(=O)Cc2cc(OC)c(OC)cc2C(=O)c2ccccc2F)cc1OC,active: 10 µM,–
N#Cc1cccnc1N1CCN(C(=O)c2cccc3c2C(=O)c2ccc(-c4ccc(F)cc4OCc4ccccc4)cc2S3(=O)=O)CC1,"inconclusive [inhibitor, full curve]",–
O=C(CCN1C(=O)C2CCCCC2C1=O)Nc1ccc(Br)cc1F (stereo not drawn),"inconclusive [inhibitor, partial curve, poor fit]",–
Cc1ccccc1Cn1cc(NC(=O)c2cc3nc(-c4ccco4)cc(C(F)(F)F)n3n2)cn1,active: 10 µM,–
COc1ccccc1OCCC(=O)Nc1cccc(S(=O)(=O)N2CCCCC2)c1,"inconclusive [inhibitor, partial curve]",–
CCCN(CC(=O)Nc1ccccc1OC)C(=O)c1cccc(S(=O)(=O)Nc2ccc(OC)cc2)c1,"inconclusive [inhibitor, single point]",–
Cc1cccc(-c2oc3ccccc3c2C#CCCO)c1,"inconclusive [inhibitor, full curve]",–
